Laboratory results from PubChem BioAssay AID504845 (National Center for Advancing Translational Sciences (NCATS), 2011).
Among all 390,000 compounds or so, about 150 (0.038%) were called active. Inconclusive results, whose numbers are uncertain, are shown with a selection of clear calls. Calls come from the whole dose curve; as a rule, active = well fitted inhibition curve with a large enough effect; inconclusive = small, poorly fitted or top-dose-only effect; inactive = no such curve, though single readings can be large or run the other way. A potency beside an inconclusive call is a rough fit, not a confirmed value.
% is set by controls: 0 for no effect and ±100 for the full control effect; potency is the fitted concentration of half-maximal effect; tags give direction and shape of the fitted curve.
Note: nearly all actives have a fitted effect of over 75% in size.

These molecules were tested against Regulator of G-protein signaling 4 (Homo sapiens) (UniProt P49798) (assay: Inhibitors of Regulator of G Protein Signaling (RGS) 4: qHTS). Conditions: Transcreener GDP fluorescence polarization, RGS4-accelerated GTP hydrolysis; series mostly up to 114 µM; activity change, negative = inhibition: at the top concentration.
UniProt P49798, sequence (P49798 whole entry, looked up): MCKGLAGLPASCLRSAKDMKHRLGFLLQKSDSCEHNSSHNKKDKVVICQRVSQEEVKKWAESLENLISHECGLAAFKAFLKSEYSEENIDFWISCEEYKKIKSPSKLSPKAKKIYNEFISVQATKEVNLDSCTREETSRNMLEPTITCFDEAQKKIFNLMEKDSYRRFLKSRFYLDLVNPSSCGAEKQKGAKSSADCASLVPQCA
In short: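 MLSMR compounds (23 nl, pin-transferred) preincubated 10 min at room temperature with a 500nM (2x) first reagent, then RGS4 at 900nM (2x) plus Transcreener GDP mix added; fluorescence polarization (620/688 nm) read before and after 90 min at 30 °C.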
With Cc1cc(-c2nsc(=O)o2)c(S(C)(=O)=O)s1 the Potency was inconclusive: 79.4 µM [inhibitor, partial curve, poor fit]. In the case of Cc1ccc(N/C(N)=N/c2nc(C)cc(N3CCCCC3)n2)c(C)c1, the “activity change, negative = inhibition” value is reported as inactive: -11.1%. In the case of COc1cccc(CNc2ccc(S(=O)(=O)Nc3nccs3)cc2)c1O, the “activity change, negative = inhibition” value is reported as inactive: 11%. With CCC1(C)Cc2sc3c(=O)[nH]c(=S)[nH]c3c2CO1 (stereo unspecified) the Potency was inconclusive: 50.1 µM [inhibitor, partial curve, poor fit]. With C=CCN1C(=O)/C(=C/c2ccc(OC(C)=O)c(OCC)c2[N+](=O)[O-])SC1=S the Potency was inconclusive: 79.4 µM [inhibitor, single point]. In the case of O=C(NNC(=O)c1cccs1)c1ccc(Cl)nc1, the “activity change, negative = inhibition” value is reported as inactive: 1.15%. In the case of COc1ccccc1NC(=O)CSc1nnc(Cc2cccn2C)n1CCc1ccccc1, the “activity change, negative = inhibition” value is reported as inactive: -3.26%. For C=CCn1c(COc2ccccc2)nc2ccccc21, the “activity change, negative = inhibition” value was inactive: 18.4%. With O=[N+]([O-])c1cc(Br)c(Nc2ccccc2)c([N+](=O)[O-])c1 the Potency was inconclusive: 44.7 µM [inhibitor, partial curve, poor fit]. In the case of O=C(O)c1ccc2c(=O)n3c(nc2c1)/C(=C/c1ccc(Cl)c(Cl)c1)CC3, the Potency is reported as inconclusive: 17.8 µM [inhibitor, partial curve, poor fit]. With COc1ccc(C(=O)NC(=S)Nc2ccc(CN3CCOCC3)cc2)cc1Br the Potency was inconclusive: 50.1 µM [inhibitor, partial curve, poor fit]. With Cc1ccc(C2CC(=O)N3CN(Cc4ccco4)CSC3=C2C#N)cc1 (stereo unspecified) the Potency was inconclusive: 89.1 µM [inhibitor, partial curve, poor fit]. With COc1ccccc1N1CCN(c2cc(C)nc3nncn23)CC1 the “activity change, negative = inhibition” value was inactive: -5.79%. CCCOC(=O)C1=C(C)N(C)C(=O)NC1c1cc2c(cc1[N+](=O)[O-])OCO2 (stereo unspecified) was tested, and the Potency was inconclusive: 44.7 µM [inhibitor, partial curve, poor fit]. For O=C(O)c1c(-c2ccccc2)c(-c2ccccc2)nc2ccccc12, the Potency was inconclusive: 89.1 µM [inhibitor, partial curve, poor fit]. For COc1ccccc1C=NN1C(=O)CSC1=S, the Potency was inconclusive: 79.4 µM [inhibitor, partial curve, poor fit]. In the case of CCNc1nc(-c2cc(C)n(Cc3ccco3)c2C)cs1, the Potency is reported as inconclusive: 17.8 µM [inhibitor, partial curve, poor fit]. Cc1ccc(CS(=O)(=O)c2ncc(Cl)c(C(=O)Nc3ccc(OC(F)F)cc3)n2)cc1 was tested, and the Potency was inconclusive: 100 µM [inhibitor, partial curve, poor fit]. For COCCCNC(=O)c1ccc(Cn2c(=O)c3cccn3c3cccnc32)cc1, the “activity change, negative = inhibition” value was inactive: -22.7%. With N=C1CCC(=N)c2c1c(O)c1ccccc1c2O the Potency was inconclusive: 17.8 µM [inhibitor, full curve, poor fit]. COc1ccc(-n2c(=S)[nH]c3cc(C(=O)NCCCN4CCCC4=O)ccc3c2=O)c(OC)c1 was tested, and the Potency was inconclusive: 79.4 µM [inhibitor, partial curve, poor fit]. With NN/C(=C\[N+](=O)[O-])Nc1ccc(Cl)cc1 the “activity change, negative = inhibition” value was inactive: -12.1%. In the case of Cc1sc2nc(CSCC(=O)N(CCC#N)c3ccccc3)[nH]c(=O)c2c1C, the Potency is reported as inconclusive: 44.7 µM [inhibitor, partial curve, poor fit]. With COC(=O)Cc1ccc(NC(=O)C(c2ccccc2)c2ccccc2)cc1 the “activity change, negative = inhibition” value was inactive: -3.87%. O=C(NCc1ccco1)C1CCCN(S(=O)(=O)c2ccc(Br)cc2)C1 (stereo unspecified) was tested, and the Potency was inconclusive: 79.4 µM [inhibitor, partial curve, poor fit]. With Cc1cc(C(=O)O)ccc1-c1ccc(/C=C2\NC(=O)N(Cc3ccccc3Cl)C2=O)o1 the Potency was inconclusive: 79.4 µM [inhibitor, partial curve, poor fit]. With Cc1ccc(Nc2ccc(N)cc2S(=O)(=O)O)cc1 the “activity change, negative = inhibition” value was inactive: -1.6%. In the case of Cc1nn(-c2ccc(F)cc2)c2sc(C(=O)OCC(=O)N3CCC(C)CC3)cc12, the “activity change, negative = inhibition” value is reported as inactive: -22.2%. With CN=c1nc(-c2ccccc2)n(-c2ccccc2)s1 the Potency was active: 3.77 µM. O=C1CCSC2(C(=O)N(Cc3ccc(F)cc3)c3ccccc32)N1c1cccc(F)c1 (stereo unspecified) was tested, and the Potency was inconclusive: 79.4 µM [inhibitor, partial curve, poor fit]. In the case of O=C(Cn1cc(C(=O)c2cccs2)c2ccccc21)Nc1ccc(Br)cc1, the “activity change, negative = inhibition” value is reported as inactive: 0.952%. For COCCNC(=O)C1CCN(S(=O)(=O)N2CCC3(CC2)OCCO3)CC1, the “activity change, negative = inhibition” value was inactive: 1.35%. With CC(=O)c1cccc(CN2CCN(C3CCCCC3)C(CCO)C2)c1 (stereo unspecified) the “activity change, negative = inhibition” value was inactive: 3.37%. In the case of O=C(Cc1ccccc1)Nc1cccc(N2C(=O)C=CC2=O)c1, the Potency is reported as inconclusive: 35.5 µM [inhibitor, full curve, poor fit]. With Cc1cc(C(=O)COc2ccc3ccc(=O)oc3c2)c(C)n1C the Potency was inconclusive: 79.4 µM [inhibitor, partial curve, poor fit]. With COc1ccccc1-n1c(=S)[nH]c2c(sc(=S)n2-c2ccccc2C)c1=O the Potency was inconclusive: 89.1 µM [inhibitor, single point]. In the case of CC1(C)Cc2c(c(=S)nc(-c3ccccc3)n2CCCN2CCOCC2)CO1, the Potency is reported as inconclusive: 89.1 µM [inhibitor, single point]. COC(=O)c1ccc(NC(=S)Nc2ccc3ccccc3c2)cc1 was tested, and the Potency was inconclusive: 79.4 µM [inhibitor, partial curve, poor fit]. For CCN1CCCC1CNC(=O)c1cc(NC(C)=O)c(N(C)C)cc1OC (stereo unspecified), the “activity change, negative = inhibition” value was inactive: 8.33%. O=C(Nc1ccc2c(c1)C(=O)NC2=O)c1ccccc1Cl was tested, and the “activity change, negative = inhibition” value was inactive: -1.86%. O=C(N/N=C/c1cccs1)c1[nH]ncc1Br was tested, and the “activity change, negative = inhibition” value was inactive: 12.1%. For CCc1cc(=O)oc2cc(OCC(=O)NCCCN3CCCC3=O)ccc12, the “activity change, negative = inhibition” value was inactive: 16.3%. With COc1ccc(NC(=S)NNC(=O)c2ccc(S(=O)(=O)N3CCOCC3)cc2)cc1 the Potency was inconclusive: 50.1 µM [inhibitor, partial curve, poor fit]. In the case of COc1cc(NC(=O)c2cccc(C)c2)ccc1NC(=O)c1cc2ccccc2o1, the “activity change, negative = inhibition” value is reported as inactive: -10.4%. Cn1c(CCNC(=O)c2ccco2)nc2cc(NC(=O)c3ccco3)ccc21 was tested, and the “activity change, negative = inhibition” value was inactive: -17.7%. CN1CCc2c(sc(/N=C/c3c[nH]c4ccccc34)c2C(N)=O)C1 was tested, and the “activity change, negative = inhibition” value was inactive: -12.7%.
